In publication PMC9911399, “Two distinct binding modes provide the RNA-binding protein RbFox with extraordinary sequence specificity”:
Where a chain is given by its changes, count along the chain named. Some of the results follow.

T1: RBFOX1 RRM RbFoxmut (Fox-RRM*) (Homo sapiens, UniProt Q9NWB1 109-208, R118D;E147R;N151S;E152T)
T1 sequence: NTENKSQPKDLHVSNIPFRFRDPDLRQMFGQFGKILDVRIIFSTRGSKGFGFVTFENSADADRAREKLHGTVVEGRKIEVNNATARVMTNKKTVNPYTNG

B1: AGCUCAG (DNA:RNA)
RNA: GGGAGACCGGAAUUCAGAUUGUCCAGCUCAGUUAAAUCCCGUCGUAGCCACCA
DNA 1: CAATCTGAATTCCGGTCTCCC
DNA 2: TGGTGGCTACGACGGGATT
B2: AGUGUAA (DNA:RNA)
RNA: B1 RNA with C27U, U28G, C29U, G31A
DNA 1: CAATCTGAATTCCGGTCTCCC
DNA 2: TGGTGGCTACGACGGGATT
B3: CACCCAG (DNA:RNA)
RNA: B1 RNA with A25C, G26A, U28C
DNA 1: CAATCTGAATTCCGGTCTCCC
DNA 2: TGGTGGCTACGACGGGATT
B4: GGCGAGA (DNA:RNA)
RNA: B1 RNA with A25G, U28G, C29A, A30G, G31A
DNA 1: CAATCTGAATTCCGGTCTCCC
DNA 2: TGGTGGCTACGACGGGATT
B5: UCUGUAC (DNA:RNA)
RNA: B1 RNA with A25U, G26C, C27U, U28G, C29U, G31C
DNA 1: CAATCTGAATTCCGGTCTCCC
DNA 2: TGGTGGCTACGACGGGATT
B6: AGUAGAU (DNA:RNA)
RNA: B1 RNA with C27U, U28A, C29G, G31U
DNA 1: CAATCTGAATTCCGGTCTCCC
DNA 2: TGGTGGCTACGACGGGATT
B7: GGCAGGG (DNA:RNA)
RNA: B1 RNA with A25G, U28A, C29G, A30G
DNA 1: CAATCTGAATTCCGGTCTCCC
DNA 2: TGGTGGCTACGACGGGATT
B8: AUUCUCA (DNA:RNA)
RNA: B1 RNA with G26U, C27U, U28C, C29U, A30C, G31A
DNA 1: CAATCTGAATTCCGGTCTCCC
DNA 2: TGGTGGCTACGACGGGATT
B9: AAGUGCG (DNA:RNA)
RNA: B1 RNA with G26A, C27G, C29G, A30C
DNA 1: CAATCTGAATTCCGGTCTCCC
DNA 2: TGGTGGCTACGACGGGATT
B10: ACCAGCC (DNA:RNA)
RNA: B1 RNA with G26C, U28A, C29G, A30C, G31C
DNA 1: CAATCTGAATTCCGGTCTCCC
DNA 2: TGGTGGCTACGACGGGATT
B11: CGAGUAC (DNA:RNA)
RNA: B1 RNA with A25C, C27A, U28G, C29U, G31C
DNA 1: CAATCTGAATTCCGGTCTCCC
DNA 2: TGGTGGCTACGACGGGATT
B12: CAGAUAC (DNA:RNA)
RNA: B1 RNA with A25C, G26A, C27G, U28A, C29U, G31C
DNA 1: CAATCTGAATTCCGGTCTCCC
DNA 2: TGGTGGCTACGACGGGATT
B13: UCUGCAU (DNA:RNA)
RNA: B1 RNA with A25U, G26C, C27U, U28G, G31U
DNA 1: CAATCTGAATTCCGGTCTCCC
DNA 2: TGGTGGCTACGACGGGATT
B14: GGGUAUU (DNA:RNA)
RNA: B1 RNA with A25G, C27G, C29A, A30U, G31U
DNA 1: CAATCTGAATTCCGGTCTCCC
DNA 2: TGGTGGCTACGACGGGATT
B15: GACAUAG (DNA:RNA)
RNA: B1 RNA with A25G, G26A, U28A, C29U
DNA 1: CAATCTGAATTCCGGTCTCCC
DNA 2: TGGTGGCTACGACGGGATT
B16: GAUAGGG (DNA:RNA)
RNA: B1 RNA with A25G, G26A, C27U, U28A, C29G, A30G
DNA 1: CAATCTGAATTCCGGTCTCCC
DNA 2: TGGTGGCTACGACGGGATT
B17: UUGCACC (DNA:RNA)
RNA: GGGAGACCGGAAUUCAGAUUGUCCUUGCACCUUAAAUCCCGUCGUAGCCACCA
DNA 1: CAATCTGAATTCCGGTCTCCC
DNA 2: TGGTGGCTACGACGGGATT
B18: AGCGAGC (DNA:RNA)
RNA: B1 RNA with U28G, C29A, A30G, G31C
DNA 1: CAATCTGAATTCCGGTCTCCC
DNA 2: TGGTGGCTACGACGGGATT
B19: CCAUUGG (DNA:RNA)
RNA: B1 RNA with A25C, G26C, C27A, C29U, A30G
DNA 1: CAATCTGAATTCCGGTCTCCC
DNA 2: TGGTGGCTACGACGGGATT
B20: GUGAAUA (DNA:RNA)
RNA: B17 RNA with U25G, C28A, C30U, C31A
DNA 1: CAATCTGAATTCCGGTCTCCC
DNA 2: TGGTGGCTACGACGGGATT
B21: GUACCGG (DNA:RNA)
RNA: B1 RNA with A25G, G26U, C27A, U28C, A30G
DNA 1: CAATCTGAATTCCGGTCTCCC
DNA 2: TGGTGGCTACGACGGGATT
B22: GACUCCA (DNA:RNA)
RNA: B1 RNA with A25G, G26A, A30C, G31A
DNA 1: CAATCTGAATTCCGGTCTCCC
DNA 2: TGGTGGCTACGACGGGATT
B23: UCGUGCG (DNA:RNA)
RNA: B17 RNA with U26C, C28U, A29G, C31G
DNA 1: CAATCTGAATTCCGGTCTCCC
DNA 2: TGGTGGCTACGACGGGATT
B24: AGCUUUA (DNA:RNA)
RNA: B1 RNA with C29U, A30U, G31A
DNA 1: CAATCTGAATTCCGGTCTCCC
DNA 2: TGGTGGCTACGACGGGATT
B25: UCCCAAG (DNA:RNA)
RNA: B1 RNA with A25U, G26C, U28C, C29A
DNA 1: CAATCTGAATTCCGGTCTCCC
DNA 2: TGGTGGCTACGACGGGATT
B26: AGCAGGG (DNA:RNA)
RNA: B1 RNA with U28A, C29G, A30G
DNA 1: CAATCTGAATTCCGGTCTCCC
DNA 2: TGGTGGCTACGACGGGATT
B27: CAUUGUU (DNA:RNA)
RNA: B1 RNA with A25C, G26A, C27U, C29G, A30U, G31U
DNA 1: CAATCTGAATTCCGGTCTCCC
DNA 2: TGGTGGCTACGACGGGATT
B28: CAGCACG (DNA:RNA)
RNA: B17 RNA with U25C, U26A, C31G
DNA 1: CAATCTGAATTCCGGTCTCCC
DNA 2: TGGTGGCTACGACGGGATT
B29: GAUUGAA (DNA:RNA)
RNA: B1 RNA with A25G, G26A, C27U, C29G, G31A
DNA 1: CAATCTGAATTCCGGTCTCCC
DNA 2: TGGTGGCTACGACGGGATT
B30: CUCACUC (DNA:RNA)
RNA: B1 RNA with A25C, G26U, U28A, A30U, G31C
DNA 1: CAATCTGAATTCCGGTCTCCC
DNA 2: TGGTGGCTACGACGGGATT
B31: AACGUCU (DNA:RNA)
RNA: B1 RNA with G26A, U28G, C29U, A30C, G31U
DNA 1: CAATCTGAATTCCGGTCTCCC
DNA 2: TGGTGGCTACGACGGGATT

The binders below were run against T1, RBFOX1 RRM RbFoxmut (Fox-RRM*) (assay: EMSA; HiTS-Eq, 1 nM pool, 10 min; buffer printed only for the single-RNA assays: 10 mM Tris pH 7.5, 150 mM NaCl, 3.4 mM EDTA, 0.001% NP-40, 30 C). Details: tags: His6 N-terminal (pET28a); label: 5' 32P.
Outline: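 Purified RbFox RRM, wild type or mutant, was incubated for 10 min in 50 µL with 1 nM of a 5′-radiolabelled RNA pool carrying 7 randomized nucleotides, whose flanks were annealed to DNA oligonucleotides, over a series of increasing protein concentrations. Unbound RNA was resolved on 8% native PAGE, cut out, reverse-transcribed, barcoded by PCR and sequenced on an Illumina HiSeq 2500. Relative association constants were derived from changes in read counts for each RNA species versus the control reaction and normalised to the cognate motif.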
B1 was tested, and the binding signal was 0.101 KA relative to UGCAUGU. B2 was tested, and the binding signal was 0.128 KA relative to UGCAUGU. With B3 the binding signal was 0.116 KA relative to UGCAUGU. In the case of B4, the binding signal is reported as 0.0893 KA relative to UGCAUGU. With B5 the binding signal was 0.0965 KA relative to UGCAUGU. With B6 the binding signal was 0.128 KA relative to UGCAUGU. B7 was tested, and the binding signal was 0.0625 KA relative to UGCAUGU. In the case of B8, the binding signal is reported as 0.108 KA relative to UGCAUGU. With B9 the binding signal was 0.165 KA relative to UGCAUGU. With B10 the binding signal was 0.0795 KA relative to UGCAUGU. B11 was tested, and the binding signal was 0.0919 KA relative to UGCAUGU. In the case of B12, the binding signal is reported as 0.101 KA relative to UGCAUGU. With B13 the binding signal was 0.119 KA relative to UGCAUGU. With B14 the binding signal was 0.105 KA relative to UGCAUGU. With B15 the binding signal was 0.0929 KA relative to UGCAUGU. With B16 the binding signal was 0.0622 KA relative to UGCAUGU. With B17 the binding signal was 0.181 KA relative to UGCAUGU. For B18, the binding signal was 0.0799 KA relative to UGCAUGU. In the case of B19, the binding signal is reported as 0.0979 KA relative to UGCAUGU. With B20 the binding signal was 0.191 KA relative to UGCAUGU. With B21 the binding signal was 0.0779 KA relative to UGCAUGU. For B22, the binding signal was 0.0973 KA relative to UGCAUGU. For B23, the binding signal was 0.147 KA relative to UGCAUGU. B24 was tested, and the binding signal was 0.103 KA relative to UGCAUGU. With B25 the binding signal was 0.098 KA relative to UGCAUGU. B26 was tested, and the binding signal was 0.0897 KA relative to UGCAUGU. With B27 the binding signal was 0.106 KA relative to UGCAUGU. With B28 the binding signal was 0.192 KA relative to UGCAUGU. With B29 the binding signal was 0.154 KA relative to UGCAUGU. With B30 the binding signal was 0.0504 KA relative to UGCAUGU. With B31 the binding signal was 0.0416 KA relative to UGCAUGU.
